# Measured values taken from the supplement of paper PMC11417369.
# Some of the results follow.
# Test system: PfAP2-HC AP2 domain (GST-tagged)
# Assay: gcPBM binding intensity (ln(normalized median fluorescence intensity)); higher = stronger DNA binding
# Procedure, shortened: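 For binding intensity, the highest Masliner-normalised natural-log median intensity across replicate spots of either probe orientation was taken. Protein bound to the array was stained with Alexa488 anti-GST antibody and scanned at 488 nm. The protein, GST-tagged P. falciparum DNA-binding domains from E. coli at about 25 μg on average, had been applied for 1 h to an Agilent 4 × 180k array of primer-extended double-stranded 36-bp intergenic genomic probes and negative controls.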
row,Sequence,gcPBM binding intensity (ln)
1,ACAGAGCTTTAAATACGTACATAATATATATTAAAT [XGTACX_site8221],9.58
2,ATATAGATATATAGTAGTACTTGTTATATAAGATAA [XGTACX_site6336],9.77
3,TATTGATTTAGAAACACACACTCGAAGATGTTTAAC [CACACA_site1129],9.83
4,ATATATATATATAAATGTACATTGTGTGTTGTAAGA [XGTACX_site2434],9.93
5,ATAAAAAAAAAATAATGTACTTATATATATATATAT [XGTACX_site8282],9.55
6,TTAAAAATGTTGGAAAGTACATATTTTTTAAAAGTA [XGTACX_site802],9.39
7,CGCCTATAAGCTTAGACACACAAATAAATAAATATA [CACACA_site1264],9.48
8,TACCTAATTCGGTCCCGTACAAGTTAGTTTCAATTC [XGTACX_site2703],9.44
9,TATTGGGGGTATAAACACAGTAAGTAAATAAATAAA [CACACA_negctrl_site1680],9.45
10,ATGTATGTGTAACATAGTACTTTTTAAAAGGATATT [XGTACX_site5328],9.8
11,TATAGATACATATACACACACACACCCACATATATA [CACACA_site3436],10.8
12,AATATCATATAAAAATGTACAAATTCTAAAACACGA [XGTACX_site1442],9.77
13,TATTTTTTATAATAATGTACATATATATATATAATA [XGTACX_site2329],9.45
14,GTATTCATGCTAAAGGTGCAATAATTTTTATAATAA [GTGCAC_site9603],9.46
15,AAGATAAAATTATGTAGTACAAAAAAAAATAAAAAA [XGTACX_site139],9.88
16,ATCAAACCTTTTAAATGTACATTCGGAGTAAAAAAA [XGTACX_site282],9.56
17,AAAAGTTTTATTTAAATGAATTAATCTTTACTATAT [CACACA_negctrl_site282],9.52
18,TGATTTCCAGGTTATTGTACAAAATTAATTTTCGAA [XGTACX_site2491],9.47
19,TATTAAACAAATTATGCAAAAATAAATCAATATGTT [CACACA_negctrl_site171],9.61
20,CAATTTATAAAGAAAACACACATATACATATATACA [CACACA_site1260],9.8
21,ATTATTTTATAATTCACACATAAATAAAAAAAAAAT [CACACA_site5290],9.55
22,TTAGGAAGCTCACAAAATAAAGTGAAAAGAAGAAAA [XGTACX_negctrl_site572],9.55

row,Sequence,gcPBM binding intensity (ln)
1,TAAATATTATTTCATAGTACTTTTATTATTGATATA [XGTACX_site5566],9.59
2,TTTTGTAGTTTATAAATAAAAGAGAATATGGTGCTT [CACACA_negctrl_site413],9.63
3,TAAATAAATATATATACACACATATATATATATATA [CACACA_site598],9.6
4,ATATATATAAAACACACACACAAAAAAAATAAAGAC [CACACA_site117],11.2
5,AGGAAATGTTTATATACATGCATAATTAAATATAAT [TGCATGCA_site672],9.63
6,ATAAAATGCGCAAACACACACAAAAAAAAGATATAT [CACACA_site6875],10.2
7,TTTTTAATTAATCTTATAAATATTTATAAATATATA [CACACA_negctrl_site1485],9.44
8,CATATTGTCATTCTGGTGCACTTTTTTTTTTTTTTT,9.84
9,ATATAATATAACAATACGCACACGTATACAAAAAAA [CACACA_site3151],9.91
10,TTTTCATGTTTTTTTCTTTATTTTTTTTTTTTTTTT [GTGCAC_negctrl_site511],9.45
11,TTTTTTTATTATTATTGTACAAGGCCTTAGGTGATT [XGTACX_site5050],9.54
12,TACTTAATTATAAGGACATGCACAAAAGGAATTATT [TGCATGCA_site468],9.72
13,TTTTTTTTTTTTTTTTTTTTCTTCATTTAATTTATA [GTGCAC_negctrl_site17],8.67
14,ATTATATTTCAATTATGTACATATAAAATGAATAAA [XGTACX_site4204],9.51
15,AATTTTCATTTTAGAAGTACACACAAAAAATAAAAT [XGTACX_site4426],9.64
16,AAATAAAATACAATATGATAAAATGTTATCATATAT [CACACA_negctrl_site538],9.79
17,ATAAATAATATAAATACACACTAAAAAAGATATATA [CACACA_site6397],9.84
18,AATAAAAGGAATAATTGTACATAATGATTATACGTT [XGTACX_site7548],9.8
19,TTTTGTAAAATTAATTTATTATACATATATATTTCT [GTGCAC_negctrl_site728],9.63
20,TAATGTACTTAAACCGCACACATATAAAAAAATAAA [CACACA_site8926],9.8
21,TTATTTTAATTTTTGGTGCATATTCAAGTGTACCTT [GTGCAC_site9791],9.56
22,TATTTACATATTTATATACACACTTTTGCGTGTCTG [CACACA_site1110],10.2

row,Sequence,gcPBM binding intensity (ln)
1,AATACTCCATTGTATAGTACATATATTTTTATTTAT [XGTACX_site3641],9.76
2,AATAAAAAAAAAAATAATATATATGTATAAATATAT [CACACA_negctrl_site1561],9.58
3,TATTTTTATTTATATACACACTTACATATTTATATT [CACACA_site7666],10
4,AGAATTTATAAAAACTGTACATATTTTCCAGTTATA [XGTACX_site2848],9.57
5,GTTGTAAAAAGAAAATGTACGTAATAAATATATATA [XGTACX_site3081],9.77
6,TTTATCCTTCTTTTGAGTACTCAAAGAGACCTATAA [XGTACX_site8050],9.48
7,AAAAAAAACAGACACACACACAAATATTTATATATC [CACACA_site6342],10.5
8,ATTATAAATATAAATATAAATATATATTGTTCCGCA [TGCATGCA_negctrl_site470],9.56
9,TATATATATATATATATATATATTTTTATTATATAT [XGTACX_negctrl_site89],9.89
10,TTGCACTCGTAAAAAGCACACATATAAAAACATTTA [CACACA_site7997],9.58
11,TTAAAAATGTTATAATGTACATATAATATTTTATGA [XGTACX_site5954],9.49
12,AAAACACATACTATATGTACATATAATAATTTATAT [XGTACX_site4525],9.79
13,AAGAAAAAAAAAAAAAAAAAAAAAAAAAAAAAAAAA [TGCATGCA_negctrl_site263],9.13
14,TTCTGTATATAGTGTGCACACAATTAAAAAAAAAAA [CACACA_site8400],10
15,ATTATAAATAAAATATGTACATATGTATAAATACAT [XGTACX_site4002],9.76
16,AAATATATTTTTTTTTGTACTCAAAAAGAAAAAAAA [XGTACX_site8540],9.05
17,ATAAAATTATATACTCGTACACAAAAAAAAAAAATA [XGTACX_site6035],9.73
18,AAAAATTGAATGATGTGTACTTAAAAGAATATAGAA [XGTACX_site6588],9.77
19,TTTACACTTTTTTTTGTACACACTAATAAGATTAAC [CACACA_site9304],9.82
20,TTTTAATTAAATACAAAAAAAAAAAAAAAAAAAAAA [CACACA_negctrl_site1631],8.63
21,AAAAAAATTTTTAAAAGTACATTAATATTAATATGT [XGTACX_site5177],9.58
22,ACATTACAATTATTATAATCAATATATAACCTCTAA [TGCATGCA_negctrl_site105],9.49

row,Sequence,gcPBM binding intensity (ln)
1,ATATATTATATTTAAGTGCATTAATTAAAATGCTTA [GTGCAC_site9403],9.28
2,AAAAAAAATCAGACAGGTACACATTCCATGTTCAAA [XGTACX_site5380],9.81
3,CATTAATATATATATAGTACATATACACCTTCATTA [XGTACX_site8473],9.75
4,AAAATAAATATAAAATGTACTTATATATATATATAT [XGTACX_site7803],9.52
5,CAATTAAAAAATAATACATGCATATAAATAGATATT [TGCATGCA_site427],9.74
6,ATAATTAAATAAAAAAGTACACATACATCATAATGC [XGTACX_site7656],9.94
7,TATGAAGTGCACAATACACACTAATTCTATATAAAT [CACACA_site7269],9.74
8,TAAGAATACGAAAGGTGTACACTGTGGAGACTTCAA [XGTACX_site2619],9.9
9,TATATAATAACATATGCATGCAAGTAATATAACCAA [TGCATGCA_site324],9.84
10,TATAATATATATGTAACACACAAAAGTTATATACTT [CACACA_site2868],9.73
11,ATATATACATATATATGTACGTATATTTTTATTTCT [XGTACX_site6198],9.89
12,TATAAACCCACCTACACACACAACGTAAATGCATTG [CACACA_site2238],10.1
13,ATTTAACAACTTCAAACACACAATATAGATTTATAT [CACACA_site7067],9.79
14,AACATACACATATACACACACACATATATACATATA [CACACA_site1093],10.4
15,AAAAAAAAAAAAACATGTACATAAATGTAAAAAAGT [XGTACX_site8158],10.6
16,ACATATAAAATGTATACACACAAATATTACAGAGAT [CACACA_site4920],10
17,TATAATAACAATTTAGTGCATATAATAATATTTTAT,9.43
18,GCTTTTGAAAATATACACATGTTAGGAATACAGGGG [TGCATGCA_negctrl_site480],9.64
19,ATTTTTTTTCTTTTTTTTTTACATTTTTTTCTTTTT [CACACA_negctrl_site1289],9.78
20,AATTAAGTTAAACATTAAAAAAAACAAAAAATTAAA [CACACA_negctrl_site1333],9.55
21,GCCATTAATTTATACACACACATTATGATTTTTTAT [CACACA_site754],10.2
